Measurements taken from the supplement of paper PMC11417369.
± gives the standard deviation of the averaged measurements. The list shows a part of the results.

Tested on: PfAP2-I AP2 domain 3 (GST-tagged)
Assay: gcPBM binding intensity (ln(normalized median fluorescence intensity)); higher = stronger DNA binding
How it was run: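 The binding buffer was 1× PBS containing 1% milk, 0.2 mg/ml BSA, 0.5% salmon testes DNA and 0.03% Triton X-100. In it, GST-tagged P. falciparum DNA-binding domains expressed in E. coli were applied for 1 h to an Agilent 4 × 180k array of primer-extended double-stranded 36-bp intergenic genomic probes plus negative controls. Binding intensity, read with Alexa488 anti-GST antibody and a 488 nm scan, is the highest Masliner-normalised natural-log median intensity across replicate spots of either probe orientation.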

Sequence | gcPBM binding intensity (ln)
ATGTATATAAATATACGTACATAAATATAAGTATAG [XGTACX_site7155] | 7.83 ± 0.23
ATACATGAATAAATATGTACACATATAAAAACATAT [XGTACX_site2740] | 7.96 ± 0.23
CATTATATATATTACTAAAAATTTTACCCCTTAGCT [CACACA_negctrl_site302] | 7.93 ± 0.48
TTTTTTCTTTTTATGTGTACTTATTTTATTTAATAA [XGTACX_site1080] | 8 ± 0.49
CTATAATAACATAACACACACATGTATTTATAGGTG [CACACA_site6298] | 7.79 ± 0.57
ATATATATACAACAAGCATGCAGTAATTTTTTTTTT [TGCATGCA_site728] | 8.52 ± 0.79
TCCTTATAAAAATACACACAAACTTTAATTAAAACA [CACACA_site3730] | 7.75 ± 0.33
TATTATATTTATTTATGTACACATATACTTAAATAA [XGTACX_site1355] | 7.78 ± 0.43
TGTAATACAGAAAAAAGTACTAAAAAGAAAAGGATT [XGTACX_site3176] | 8.445 ± 0.049
ACACCTATAAATTAAGTGCATTTTTTTTGATGTTAT | 9.45 ± 0.46
TTTTTTTTTTTAATATGTACGTAAAATAAGTTTAAA [XGTACX_site6495] | 8.06 ± 0.18
ACATTCAATCTACTGTGTACATATTAAACTTTGAAA [XGTACX_site2913] | 8.18 ± 0.68
AAAAAATATATATCACGTGGTAATATATATATATAT [XGTACX_negctrl_site252] | 9.13 ± 0.45
AAATTAAATCCGCACGCACACACACCGATTAATAAA [CACACA_site9321] | 8.73 ± 0.4
AATATATAAATAGATACACACATACATACATACATA [CACACA_site4301] | 8.07 ± 0.49
TACATCTGTATATAAACACACAACAAAAATGCTTAC [CACACA_site3814] | 7.69 ± 0.75
TAACATTACTCTTAACTCTTTTGGATACCAACTTAT [XGTACX_negctrl_site82] | 7.78 ± 0.54
ATAATAATATATACATGTACATATATATATATATAT [XGTACX_site3455] | 9.12 ± 0.39
AAATATTTATAAATTGCACACAAATAATAACATTAT [CACACA_site8737] | 8.47 ± 0.099
AAATAAAAAGTAAAGCGTACAAATGATCAAATAATA [XGTACX_site7898] | 7.91 ± 0.59
TAATCAACAAAATCTACACACTAAAATGAAATATAA [CACACA_site3749] | 7.58 ± 0.72
TATAAATAGATATATACACACTTGTGCAGAATATTA [CACACA_site7112] | 9.37 ± 0.099

Sequence | gcPBM binding intensity (ln)
AGAAGTGTAAAAGTTACACACACAAACTTGTCATTT [CACACA_site4613] | 7.66 ± 0.61
CCCAGGTGCTCGTAACGTACTTACATCAAATATTAT [XGTACX_site4617] | 8.71 ± 0.23
AGGCGTGAAATATACGTACACACATTATTTATATTT [CACACA_site2558] | 7.99 ± 0.3
CATATTAAAAATACATGTACATATATATTTAATATA [XGTACX_site8580] | 7.74 ± 0.26
AACCTCAAATACACAAGTACGTATAATAAGGAACAA [XGTACX_site4304] | 7.87 ± 0.43
GTTAAAATAATATTATGTACATATATATAAAAATAT [XGTACX_site8512] | 7.96 ± 0.34
GTTTGTAAATATTTTACACACATATTTATTTATATA [CACACA_site6632] | 7.61 ± 0.66
TATAAATATGTGTTTACACACAATAATGAATTAAAA [CACACA_site6555] | 7.49 ± 0.5
ATGGAAAAATGTATATATAAAATAAATATATTATAT [CACACA_negctrl_site1712] | 7.49 ± 0.63
AATATACACATTGTGAAATAACAAAAAAGGCAAAAA [CACACA_negctrl_site1014] | 7.87 ± 0.77
CCTATTTATATATACACACACATATATAAATAAATA [CACACA_site2991] | 8.09 ± 0.32
AATAAAAAGATATTCTCCTTGTTCCTTTTTTTTAAA [CACACA_negctrl_site1147] | 7.83 ± 0.64
TATATATATGTATGATGTACATATATGCATATATAT [XGTACX_site3399] | 8.14 ± 0.8
TTAATTAAATATTATACACACAAAAAAATAATTTTA [CACACA_site96] | 7.57 ± 0.6
ATATATATTCATAATACACACATTCTGTAGCATTAT [CACACA_site2067] | 8.01 ± 0.69
ATAGTATCTGGTAGCTGTACGAATGGTAGAGAGTAG [XGTACX_site2548] | 8.62 ± 0.45
ATATATATATTAAAGGTGCACAAATAAATATATACA [GTGCAC_site9532] | 11.54 ± 0.035
ATATTTTTTTTCTTCACACACATGAATTATATATAA [CACACA_site3216] | 8.27 ± 0.49
AATCTATATTGACACACACACAAAAAAAAAAAAAAA [CACACA_site6739] | 7.95 ± 0.43
ATTTTAACCAATTATTGTACTTGGTTATTCTTTTTT [XGTACX_site7453] | 7.46 ± 0.66
AAATTATTGAAATACGCATGTGTTTTTTTTTTTTTT [TGCATGCA_site391] | 8.05 ± 0.47
AATATTACGTCTGGACGTACAAATCTTTTTCGTGTC [XGTACX_site6644] | 7.74 ± 0.59

Sequence | gcPBM binding intensity (ln)
GAAATATTTTGTTGTGCATGCGACATTAAATAAAAA [TGCATGCA_site331] | 8.22 ± 0.68
TTTTACTAGATATATACACACATTATACCTATAGAT [CACACA_site7530] | 7.81 ± 0.72
ACATTTTTTTTTTTTTTTTTTTTCTTACATCATGCA [CACACA_negctrl_site1413] | 8 ± 0.58
ATATAAAGGTTTATTAGTACACATTAGAATACTTTT [XGTACX_site4492] | 7.75 ± 0.47
CATATTAGGACAAAGTGTACATATATATATATATAT [XGTACX_site1172] | 9.53 ± 0.69
TTATGAAAAAAATACTGTACACAATATGACGAAAGT [XGTACX_site2283] | 8.46 ± 0.42
TTTTAAATAAATCATGCATGCACATATAATTATATT [TGCATGCA_site151] | 8.81 ± 0.72
TATACGCATATTTTTACACACATATTTTTTCATATA [CACACA_site2546] | 8.2 ± 0.28
TATCTCATTTGGAATTGTACTAACAGATACTTGTTT [XGTACX_site2672] | 7.54 ± 0.54
TATATATAATATATATGTACATATGTATAATATTTA [XGTACX_site4400] | 7.67 ± 0.18
CAAAAGAAGGTAAACACACACACACCCATACAAAAA [CACACA_site3765] | 8.1 ± 0.11
ATTATTCGTTTTAAATGTACTCATATAAACGATAAA [XGTACX_site7866] | 7.8 ± 0.16
ATATTTTTTTTCATTTGTACACATAAAATTATATAG [XGTACX_site8260] | 8.19 ± 0.46
CATATTTACATTAAGTGTACTTATGAATATATATAC [XGTACX_site7962] | 7.8 ± 0.14
ATAATATTTTATAATTGTACTTTTTATAAATATAAA [XGTACX_site1940] | 7.64 ± 0.21
TAAATAAATCCACATACACACACGACGCTAGTATAT [CACACA_site1060] | 7.63 ± 0.35
GATAGATAATATTTTAGTACATAAACAATTAAATAT [XGTACX_site4125] | 7.91 ± 0.44
AATATTTTATTTTTTCTCATTAAAAATTTTTTTTTT [CACACA_negctrl_site364] | 7.46 ± 0.73
TTATATTTTTTTTGTAGTACATTATAGAATACACAC [XGTACX_site969] | 8.39 ± 0.4
TTAATAACAAAATAAACACACATATATAAATACACA [CACACA_site6849] | 7.91 ± 0.16
TTTATTAAAACAAAATGTACACACATATAATTTAAT [XGTACX_site1637] | 7.65 ± 0.52
TAAATTCTGTTTAAAAGTACAAATAATATTGTGCCT [XGTACX_site7805] | 7.55 ± 0.4

Sequence | gcPBM binding intensity (ln)
AAATGTTGAAATGATACACACATATATATATATATA [CACACA_site2517] | 9.35 ± 0.54
TGAAAGTGTATTAAAGTGCATATTATTTTATCTACC [GTGCAC_site9969] | 9.81 ± 0.24
TTAATCTTCATAAAATGTACAGAAGATTGAATATTC [XGTACX_site6213] | 7.58 ± 0.49
AAATCAAAAACGTTTACACACATTCTTATTTAAATA [CACACA_site790] | 8.04 ± 0.57
TACAGAAATTTATATATATATATATATATATATATA [XGTACX_negctrl_site209] | 9.39 ± 0.54
TACATATATTTTTTATGTACTTACTTGTGTGTTTAT [XGTACX_site5126] | 7.77 ± 0.17
TGAGACATGAATGCAAGTACAAAAAGGAGAACAAAA [XGTACX_site6183] | 8.21 ± 0.7
AAATTATATATAATAAATAATTTCTTTTTCTAAAAG [CACACA_negctrl_site8] | 7.22 ± 0.38
AAAAAAAAAAAAAAAAGTACACACTTTTGCCTACAT [XGTACX_site6583] | 8.86 ± 0.49
TTTTATAATTTCAAAGGATTCTTTAATATTATAAAT [CACACA_negctrl_site1812] | 7.33 ± 0.61
AATAATTGCTAAAGGTGTACAATACGTATATAAGAA [XGTACX_site4910] | 8.9 ± 0.74
TTTCACCATATAAACGTGCACACTACAAAAATATAT [CACACA_site2547] | 11.1 ± 0.35
GGAAAGACAGTTCACAGTACCCAGTAACTCTACGGA [XGTACX_site2009] | 7.33 ± 0.76
TTCATGCTTATATGTGCACACACAAAAGAAAAGAAA [CACACA_site1656] | 10.1 ± 0.27
AAATAATAAATTATAACACACATATATATATATATA [CACACA_site4045] | 9.19 ± 0.28
ATAATACAATTTATAACACACACACTATAATACATA [CACACA_site8338] | 7.98 ± 0.31
TTATATAGGTCATTCATAAATACAGTTTTTAAAAAA [CACACA_negctrl_site1340] | 7.62 ± 0.48
GCATAAATTATCATAACATAAATATAAAAATATAAT [GTGCAC_negctrl_site55] | 7.52 ± 0.41
GATTATTTTATAAGTACACACATTTATATATAATAA [CACACA_site2573] | 7.96 ± 0.41
AAAAAAAAAAGACACACACACACATAAATATAAATA [CACACA_site6215] | 7.69 ± 0.23
ATTTATTTCACAAAAACATGCAGTTTGAAATTGCCA [TGCATGCA_site910] | 7.79 ± 0.56
AATTCATTATATATACGTACATATTTCTGTATAAAA [XGTACX_site6371] | 7.94 ± 0.35
